From publication PMC5892938 come the findings set out here.

The other results are listed elsewhere or left out. Construct or isoform of the protein are uncertain.

This test concerns the target GST-SBP-ILF3 (Homo sapiens) (UniProt Q12906). The test can be described thus: targeted RNA Bind-n-Seq. As to conditions: RBNS binding buffer: 25 mM Tris pH 7.5, 150 mM KCl, 3 mM MgCl2, 0.1% Tween, 0.5 mg/mL BSA, 1 mM DTT; 27 nM protein, 750 pM RNA pool; temperature not stated; high values mean tight binding; sequences stand for … in GGGUAAAAGCGAGGUGAA…CGGGACAAGUAUUAUGGG
Turning to “GGUGUUGGUGUUGGACCCUAACACCGACGC [gtspaired]”, the binding signal (log2 fold change) was -0.235. With “UUUUUUUUUUGAGAGGGCUUCCCUCUCCUA [tttttgagapaired]”, the binding signal (log2 fold change) worked out at 0.273. As for “GUGUGGUGUGUUGGACCCUAACACACUACG [gtspaired]”, the binding signal (log2 fold change) was -0.312. With “UUUUUUUUUUGAGAUGGGAACUAUCUCCAG [tttttgagapaired]” the figure was 0.269; with “GUGUGGUGUGUUGGAAUCUAACACACUACG [gtspaired]”, -0.431.

With “GGUGUGUGUGUUGGUGUCUAACACAUACGC [gtspaired]”, the binding signal (log2 fold change) is -0.765. Next, “GUUGUGUGUGUUGGAGCCUAACACACGCGA [gtspaired]”: -0.393; “UUUUUUUUUUGAGAGGGAUGCCCUCUUCUG [tttttgagapaired]”: 0.436.

Consider “GGUGGUUGUGUUGGCGUCUAACACAGCUAC [gtspaired]”, for which the binding signal (log2 fold change) is -0.486. With “UUUUUUUUUUGAGACGGUAACCGUUUCCAG [tttttgagapaired]” the figure was 0.631; with “GUGUGUUGUGUUGGCACCUAACACAGCGCA [gtspaired]”, -0.567; with “GGUUGUGGUGUUGGUCUCUAACACCAUAAC [gtspaired]”, -0.735.

On to “UUUUUUUUUUGAGAUGGUGUCUAUCUCCAG [tttttgagapaired]”, for which the binding signal (log2 fold change) amounted to 0.64. With “GUGUGUGGUGUUGGUCUCUAACACCAUACG [gtspaired]” the figure was -0.804; with “GUGGUGUGUGUUGGCGUCUAACACAUACUA [gtspaired]”, -0.692. With “UUUUUUUUUUGAGACGGAAUCCGUUUCCUA [tttttgagapaired]” the figure was 0.0765. Next, “UUUUUUUUUUGAGAGCGGUGCGCUCUCCAG [tttttgagapaired]”: 0.122. As to “UUUUUUUUUUGAGACGGUAGCCGUUUCCAG [tttttgagapaired]”, the binding signal (log2 fold change) is 0.639.

With “GUGGUUGGUGUUGGCCUCUAACACCGACCA [gtspaired]”, the binding signal (log2 fold change) is -0.698. Consider “GUGGUGUGUGUUGGCCCCUAACACACAUCG [gtspaired]”, for which the binding signal (log2 fold change) was -0.383. Next, “UUUUUUUUUUGAGAUGGGAACCAUUUCCAG [tttttgagapaired]”: 0.385; “UUUUUUUUUUGAGACCGGAUCGGUCUUCUG [tttttgagapaired]”: 0.562. Take “UUUUUUUUUUGAGAUCGAGCCGAUCUCCUA [tttttgagapaired]”: the binding signal (log2 fold change) was determined as 0.127. On to “UUUUUUUUUUGAGAGGGAUCCCCUCUCCUA [tttttgagapaired]”, for which the binding signal (log2 fold change) was found to be 0.263. With “UUUUUUUUUUGAGACGGAAUCCGUCUUCUG [tttttgagapaired]” the figure was 0.323; with “GUGUGUUGUGUUGGAUCCUAACACAGCACG [gtspaired]”, -0.87; with “GGUUGGUGUGUUGGCGUCUAACACAUCGAC [gtspaired]”, -0.713. Next, “GUGUUGUGUGUUGGAUUCUAACACACAGCG [gtspaired]”: -0.628. With “UUUUUUUUUUGAGAUGGAAUCCGUCUCCGG [tttttgagapaired]”, the binding signal (log2 fold change) is 0.174.

With “GUGUGGUGUGUUGGAAUCUAACACACCGCG [gtspaired]”, the binding signal (log2 fold change) is -0.192. With “GUGUUGUGUGUUGGUCUCUAACACACAGCG [gtspaired]” the figure was -0.826; with “UUUUUUUUUUGAGACGGAGGCUGUCUUCUA [tttttgagapaired]”, 0.915. With “UUUUUUUUUUGAGACGGACGCCGUCUCCUA [tttttgagapaired]” the figure was 0.557. Next, “UUUUUUUUUUGAGAGCGAACCGUUCUCCUA [tttttgagapaired]”: 0.148; “UUUUUUUUUUGAGAUCGAUACGAUCUCCGG [tttttgagapaired]”: 0.0424; “GUGGUUGGUGUUGGACUCUAACACCAAUCA [gtspaired]”: -0.581. For the sequence “GGUUGUGGUGUUGGCGUCUAACACCGCAGC [gtspaired]”, the binding signal (log2 fold change) is -0.447. Next, “UUUUUUUUUUGAGACCGACUCGGUCUUCUG [tttttgagapaired]”: 0.636; “GUGUGGUGUGUUGGUCUCUAACACAUCGCA [gtspaired]”: -0.895; “UUUUUUUUUUGAGACUGUCUCAGUCUCCUA [tttttgagapaired]”: 0.465. Next, “UUUUUUUUUUGAGAGGGACACCCUCUCCUG [tttttgagapaired]”: 0.536; “UUUUUUUUUUGAGACCGUGACGGUCUUCUA [tttttgagapaired]”: 0.553.

Turning to “UUUUUUUUUUGAGACCGCAUCGGUCUCCUG [tttttgagapaired]”, the binding signal (log2 fold change) is 0.543. Consider “UUUUUUUUUUGAGACUGGACCAGUCUUCUA [tttttgagapaired]”, for which the binding signal (log2 fold change) is 0.473. As to “GUGUGUGGUGUUGGUACCUAACACCAUACG [gtspaired]”, the binding signal (log2 fold change) is -0.719. For the sequence “UUUUUUUUUUGAGAUCGAAGCGAUCUCCAG [tttttgagapaired]”, the binding signal (log2 fold change) amounted to 0.279.

Consider “GUGUGUGGUGUUGGCACCUAACACCGCACG [gtspaired]”, for which the binding signal (log2 fold change) is -0.68. Next, “UUUUUUUUUUGAGAUGGCUCCCAUCUCCAG [tttttgagapaired]”: 0.697; “UUUUUUUUUUGAGACGGACGCCGUUUCCAG [tttttgagapaired]”: 0.534.

For “UUUUUUUUUUGAGAGCGUACCGCUCUCCUG [tttttgagapaired]”, the binding signal (log2 fold change) came to 0.734. With “UUUUUUUUUUGAGAGCGUGCCGCUCUUCUA [tttttgagapaired]” the figure was 0.671; with “UUUUUUUUUUGAGAUCGUAGCGAUCUCCUG [tttttgagapaired]”, 0.453. Next, “UUUUUUUUUUGAGAUGGUGCCCAUCUCCAG [tttttgagapaired]”: 0.506. In the case of “UUUUUUUUUUGAGAUGGGGACCAUUUCCAG [tttttgagapaired]”, the binding signal (log2 fold change) came to 0.659.

For the sequence “GUGUGUUGUGUUGGUACCUAACACAGCGCG [gtspaired]”, the binding signal (log2 fold change) was -0.59.

For the sequence “UUUUUUUUUUGAGAUGGUGGCCAUCUUCUG [tttttgagapaired]”, the binding signal (log2 fold change) worked out at 0.862. With “UUUUUUUUUUGAGACCGAGACGGUCUCCAG [tttttgagapaired]” the figure was 0.414; with “UUUUUUUUUUGAGACGGGAGCCGUCUCCAG [tttttgagapaired]”, 0.606.

As for “UUUUUUUUUUGAGACGGUGUCCGUCUCCAG [tttttgagapaired]”, the binding signal (log2 fold change) came out at 0.799. With “GUGUUGUGUGUUGGCUUCUAACACACAACG [gtspaired]”, the binding signal (log2 fold change) is -0.809. With “UUUUUUUUUUGAGACGGACACUGUCUCCAG [tttttgagapaired]”, the binding signal (log2 fold change) was determined as 0.866. With “UUUUUUUUUUGAGAGCGAUGCGUUCUCCGG [tttttgagapaired]” the figure was 0.272; with “GUUGUGUGUGUUGGUCUCUAACACACGCGA [gtspaired]”, -0.586; with “UUUUUUUUUUGAGAUGGAUUCCAUCUCCUA [tttttgagapaired]”, -0.178. With “UUUUUUUUUUGAGAUGGUUUCCGUCUCCAG [tttttgagapaired]” the figure was 0.634; with “GGUGGUUGUGUUGGACCCUAACACAGCUAC [gtspaired]”, -0.442; with “UUUUUUUUUUGAGAACGUAGCGUUCUUCUG [tttttgagapaired]”, 0.378. As for “UUUUUUUUUUGAGAGGGCUACCCUCUUCUA [tttttgagapaired]”, the binding signal (log2 fold change) was found to be 0.738. With “GUGUUGUGUGUUGGAAUCUAACACACAGCG [gtspaired]” the figure was -0.337. With “UUUUUUUUUUGAGACGGCCGCCGUCUCCAG [tttttgagapaired]” the figure was 0.93; with “UUUUUUUUUUGAGACUGAGUCAGUUUCCGG [tttttgagapaired]”, 0.533.

For “UUUUUUUUUUGAGACGGAUUCCGUCUCCUA [tttttgagapaired]”, the binding signal (log2 fold change) is 0.272. In the case of “UUUUUUUUUUGAGACUGCGUCAGUCUCCAG [tttttgagapaired]”, the binding signal (log2 fold change) is 0.716. For “UUUUUUUUUUGAGACGGAGUCCGUUUCCUA [tttttgagapaired]”, the binding signal (log2 fold change) is 0.288. With “UUCCUCUCUCCUCCAGUGGAGGGGGGAGGA [ctspaired]” the figure was -0.224. With “UUUUUUUUUUGAGACUGGGUCAGUCUUCUA [tttttgagapaired]” the figure was 0.395; with “UUUUUUUUUUGAGAUCGAAACGGUCUCCUA [tttttgagapaired]”, 0.0607. Next, “UUUUUUUUUUGAGAGUGCUACAUUCUCCAG [tttttgagapaired]”: 0.0988. As to “UUCUCUCUUCCUCCGGGGGAGGAGGGGAGA [ctspaired]”, the binding signal (log2 fold change) was -0.468. With “GGUGUGUGUGUUGGUUCCUAACACACGCGC [gtspaired]” the figure was -0.529; with “UUUUUUUUUUGAGACCGGAUCGGUUUCCUG [tttttgagapaired]”, 0.867. Next, “UUUUUUUUUUGAGACCGUCACGGUCUCCAG [tttttgagapaired]”: 0.406. As to “UUUUUUUUUUGAGAGCGGAGCGCUCUCCUG [tttttgagapaired]”, the binding signal (log2 fold change) was determined as 0.495.

In the case of “UUUUUUUUUUGAGAGGGCAGCCCUCUCCUA [tttttgagapaired]”, the binding signal (log2 fold change) turned out to be 1.09. As for “GUGUGUUGUGUUGGCGUCUAACACAACGCA [gtspaired]”, the binding signal (log2 fold change) is -0.405.

On to “GUGGUGUGUGUUGGUGUCUAACACAUACUA [gtspaired]”, for which the binding signal (log2 fold change) was -0.631. For “UUUUUUUUUUGAGAGGGUGACCCUCUUCUG [tttttgagapaired]”, the binding signal (log2 fold change) was 0.249. With “GGUGUGUGUGUUGGCGUCUAACACAUACGC [gtspaired]” the figure was -0.689; with “GUUGGUGGUGUUGGACUCUAACACCGCCGA [gtspaired]”, -0.325; with “UUUUUUUUUUGAGACCGGCACGGUCUUCUG [tttttgagapaired]”, 0.445. With “UUUUUUUUUUGAGACUGACUCAGUCUCCUA [tttttgagapaired]” the figure was 0.107; with “GGUGGUUGUGUUGGCGUCUAACACAAUCGC [gtspaired]”, -0.409; with “UUUUUUUUUUGAGAGGGAUCCCUUCUCCGG [tttttgagapaired]”, -0.128. With “UUUUUUUUUUGAGAUGGUGGCCAUCUUCUA [tttttgagapaired]” the figure was 0.567; with “UUUUUUUUUUGAGACCGUAACGGUCUCCUA [tttttgagapaired]”, 0.264; with “UUUUUUUUUUGAGACGGGGGCCGUUUCCGG [tttttgagapaired]”, 1.02. For “UUUUUUUUUUGAGACGGCCGCCGUCUUCUA [tttttgagapaired]”, the binding signal (log2 fold change) is 0.785. As for “UUUUUUUUUUGAGAUCGAACCGAUCUCCGG [tttttgagapaired]”, the binding signal (log2 fold change) was -0.0229.

With “GUGUUGUGUGUUGGAUUCUAACACACAGCA [gtspaired]”, the binding signal (log2 fold change) is -0.78. As to “UUUUUUUUUUGAGACUGUAACAGUCUUCUG [tttttgagapaired]”, the binding signal (log2 fold change) came to 0.461.

On to “UUUUUUUUUUGAGAUGGCGUCCAUCUCCAG [tttttgagapaired]”, for which the binding signal (log2 fold change) is 0.717. Next, “GGUUGUGGUGUUGGUACCUAACACCGCGAC [gtspaired]”: -0.545. With “UUUUUUUUUUGAGAUGGCAUCCAUCUCCGG [tttttgagapaired]” the figure was 0.282.
